# Measured values as given in PMC6919601, “Identification of Plasmodium dipeptidyl aminopeptidase allosteric inhibitors by high throughput screening” (PLoS ONE, 2019).
# About 230 (0.21%) of roughly 110,000 compounds showed an effect of 50% or more. Some of the results follow.
# Target: DPAP1 (Plasmodium falciparum, UniProt Q8IIJ9)
# Test: primary screen, percent inhibition; read by cleavage of a fluorogenic dipeptide substrate; higher = more effect of the substance
# Set-up: species or system P. falciparum D10 trophozoite lysates; single well
# 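Also: 30 min substrate incubation versus DMSO and 10 µM JCP410 controls.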
# DPAP1, sequence (Q8IIJ9 whole entry, looked up): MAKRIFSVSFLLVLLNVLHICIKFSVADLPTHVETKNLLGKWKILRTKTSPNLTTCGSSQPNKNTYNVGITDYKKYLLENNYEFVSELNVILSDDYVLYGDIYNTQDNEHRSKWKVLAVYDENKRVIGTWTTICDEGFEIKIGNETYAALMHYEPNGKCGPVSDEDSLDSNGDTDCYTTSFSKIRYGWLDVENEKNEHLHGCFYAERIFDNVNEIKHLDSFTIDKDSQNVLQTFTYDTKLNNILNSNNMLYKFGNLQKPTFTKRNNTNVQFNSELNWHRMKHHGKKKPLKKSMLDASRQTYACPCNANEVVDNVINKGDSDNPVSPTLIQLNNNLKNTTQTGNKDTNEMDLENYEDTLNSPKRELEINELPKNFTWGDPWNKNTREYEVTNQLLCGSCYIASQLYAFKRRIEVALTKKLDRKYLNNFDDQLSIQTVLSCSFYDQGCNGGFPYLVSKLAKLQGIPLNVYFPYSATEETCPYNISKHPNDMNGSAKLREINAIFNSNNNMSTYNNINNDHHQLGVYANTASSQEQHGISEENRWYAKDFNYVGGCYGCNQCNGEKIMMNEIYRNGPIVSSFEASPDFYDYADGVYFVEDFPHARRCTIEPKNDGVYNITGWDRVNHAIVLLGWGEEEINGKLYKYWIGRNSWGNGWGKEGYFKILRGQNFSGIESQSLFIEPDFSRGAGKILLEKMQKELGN
row,SMILES,% Inhibition @ 10 uM
1,COc1ccc(NC(=O)C(Cc2ccc([N+](=O)[O-])cc2)N2C(=O)c3ccccc3C2=O)cc1 (centres unmarked),0.937%
2,O=C(Nc1ccc(Cl)cc1C(=O)Nc1cccc2ccccc12)c1ccco1,-1.59%
3,CCC(=O)N1CCc2cc(OC)c(OC)cc2C1COc1cccc(C(F)(F)F)c1 (centres unmarked),-3.56%
4,NC(=O)c1ccc(NC(=O)c2ccc3c(c2)OCO3)cc1,0.24%
5,COc1ccc(N2C(=O)C(Cl)=C(Nc3ccc(C)c(C)c3)C2=O)cc1,1.08%
6,COc1ccc(CNC(=O)Cc2c(C)c3cc(OC)c(OC)cc3oc2=O)cc1OC,-2.57%
7,CN(CC(=O)Nc1cccnc1)S(=O)(=O)c1ccc2[nH]c3c(c2c1)CCCC3,-3.6%
8,Cc1cccc(Oc2nc3c4c(C)c(C)oc4ncn3n2)c1,4.2%
9,COc1ccc(N(CC(=O)NCc2ccccn2)S(=O)(=O)c2ccc(C)cc2)cc1Cl,-9.29%
10,CC(C)CC(C(=O)NCC#N)c1ccc(NC(=O)NCc2cccnc2)cc1 (centres unmarked),-3.97%
11,CC1CCCCN1S(=O)(=O)c1ccc(CN2C(=O)c3cccnc3C2=O)s1 (centres unmarked),-7.28%
12,CCn1c(C)c(C)c2cc(C(=O)NCc3ccc4c(c3)OCO4)ccc21,0.399%
13,c1ccc2cc(Cn3cnc4ccccc43)ccc2c1,-2.87%
14,COc1ccc(S(=O)(=O)Nc2ccc(C)cc2C)cc1,3.85%
15,Cc1ccc(C2Nc3ccccc3C(=O)N2Cc2ccco2)cc1 (centres unmarked),10.6%
16,CSCCCN(CC(C)O)CC(C)O (centres unmarked),3.76%
17,CCNC(=O)Cn1cc(C#N)c2ccccc21,-3.63%
18,Cc1ccc(C2=NS(=O)(=O)N(C)C(C(=O)Nc3cccnc3)=C2)cc1,5.48%
19,Cc1ccc(S(N)(=O)=O)cc1NS(=O)(=O)c1ccc(Br)cc1,-1.17%
20,Cc1cccc(N2CCN(Cc3ccc(Cl)c([N+](=O)[O-])c3)CC2)c1C,-1.38%
21,CCC(C)c1ccc(S(=O)(=O)N2CC(=O)Nc3ccccc32)cc1 (centres unmarked),-2.18%
22,Oc1ccc(Cl)cc1C1=CC(C(F)(F)C(F)F)=NCCN1,-12.2%
23,COc1cc(/C=N/n2c(C)nnc2-n2nc(C)cc2C)cc(Br)c1O,2.56%
24,Cc1ccc(-c2csc(Nc3ccc(O)cc3)n2)c(C)c1,-4.03%
25,O=C(Nc1ccc2c(c1)OCO2)c1cccc(Cl)c1,1.84%

row,SMILES,% Inhibition @ 10 uM
1,N#Cc1c(NC(=O)c2cc(-c3ccco3)on2)sc2c1CCCC2,-5.09%
2,CCOC(=O)c1nnn(-c2nonc2N)c1-c1cccc2ccccc12,-0.0735%
3,CCN(C(=O)c1ccc([N+](=O)[O-])cc1)c1ccccc1C,-4.4%
4,CN(c1ccccc1C(=O)NCCc1ccccc1)S(C)(=O)=O,3.8%
5,CCOCCCn1c(SCC(N)=O)nc2c(oc3ccccc32)c1=O,-1.36%
6,Cc1ccc(C2=NS(=O)(=O)N(C)C(C(=O)NCc3ccccc3)=C2)cc1,-2.84%
7,CC(C)Oc1ccc(CNC(=O)Nc2cccs2)cc1,2.25%
8,CC1=C(C#N)C(=O)NC(=O)/C1=C\c1ccc(-c2cccc(C(=O)OC(C)C)c2)o1,0.487%
9,COc1cccc(CN2CCN(c3ccccn3)CC2)c1,1.63%
10,CCOC(=O)c1cnc(N2CCCCC2)nc1C1CCN(C(=O)OC(C)(C)C)CC1,-1.03%
11,CCC1CCCCN1C(=O)CCN1C(=O)c2ccccc2C1=O (centres unmarked),-4.33%
12,Nc1ccc2c(c1)C(=O)N(c1cccc(F)c1)C2=O,5.52%
13,CC1(C)CC2=Nc3nc(-c4ccccc4)nn3C(c3cccnc3)C2=C(O)C1 (centres unmarked),3.05%
14,CCCC/N=C1\CC(C)(C)CC(O)=C1C(=O)CCC,1.82%
15,Cc1ccc(-c2cn3nc(N4CCC(C(=O)NCCCc5ccccc5)CC4)sc3n2)cc1,-0.35%
16,Cc1ccc2c(c1)cc1c(=O)n(CC(=O)NCc3ccccn3)nc(C)n12,4.84%
17,Cc1ccccc1OC(C)C(=O)NC1CCCCC1 (centres unmarked),-2.76%
18,O=C(CC1C(=O)Nc2ccccc21)c1ccccn1 (centres unmarked),0.161%
19,COc1ccc(N(CC(=O)Nc2ccc(C(C)C)cc2)S(C)(=O)=O)c(OC)c1,-0.116%
20,CC1(C)CC(=O)c2c(nn(-c3ccccc3)c2-c2ccccn2)C1,1.27%
21,COCc1cc(O)nc(SCC(=O)Nc2cc(C)cc(C)c2)n1,0.777%
22,Cc1ccccc1C(=O)Nc1c(C)nc(O)nc1O,-3.13%
23,CCc1sc(NC(=O)C2CCCCC2C(=O)O)nc1-c1ccccc1 (centres unmarked),-1.28%
24,Cn1c(=N)n(CC(=O)c2ccc(-c3ccccc3)cc2)c2ccccc21,10.6%
25,CCOc1ccc2nc(N3CCC(C(=O)NCCOC)CC3)sc2c1,3.4%
